From PMC4336329 (PLoS ONE, 2015)
Among all 310,000 compounds or so, about 2,200 (0.71%) showed an effect of 50% or more. Effects have a minus sign here. This is one part of the list. Where a SMILES comes first, the peptide text is derived from it. The star is where a group is joined. Boc = CC(C)(C)OC(=O)*; OBn = c1ccc(CO*)cc1

target: human ether-à-go-go-related gene (hERG) potassium channel (human, UniProt Q12809); experiment: primary screen, population patch clamp on CHO cells stably expressing hERG
Sequence (Q12809 whole entry, looked up): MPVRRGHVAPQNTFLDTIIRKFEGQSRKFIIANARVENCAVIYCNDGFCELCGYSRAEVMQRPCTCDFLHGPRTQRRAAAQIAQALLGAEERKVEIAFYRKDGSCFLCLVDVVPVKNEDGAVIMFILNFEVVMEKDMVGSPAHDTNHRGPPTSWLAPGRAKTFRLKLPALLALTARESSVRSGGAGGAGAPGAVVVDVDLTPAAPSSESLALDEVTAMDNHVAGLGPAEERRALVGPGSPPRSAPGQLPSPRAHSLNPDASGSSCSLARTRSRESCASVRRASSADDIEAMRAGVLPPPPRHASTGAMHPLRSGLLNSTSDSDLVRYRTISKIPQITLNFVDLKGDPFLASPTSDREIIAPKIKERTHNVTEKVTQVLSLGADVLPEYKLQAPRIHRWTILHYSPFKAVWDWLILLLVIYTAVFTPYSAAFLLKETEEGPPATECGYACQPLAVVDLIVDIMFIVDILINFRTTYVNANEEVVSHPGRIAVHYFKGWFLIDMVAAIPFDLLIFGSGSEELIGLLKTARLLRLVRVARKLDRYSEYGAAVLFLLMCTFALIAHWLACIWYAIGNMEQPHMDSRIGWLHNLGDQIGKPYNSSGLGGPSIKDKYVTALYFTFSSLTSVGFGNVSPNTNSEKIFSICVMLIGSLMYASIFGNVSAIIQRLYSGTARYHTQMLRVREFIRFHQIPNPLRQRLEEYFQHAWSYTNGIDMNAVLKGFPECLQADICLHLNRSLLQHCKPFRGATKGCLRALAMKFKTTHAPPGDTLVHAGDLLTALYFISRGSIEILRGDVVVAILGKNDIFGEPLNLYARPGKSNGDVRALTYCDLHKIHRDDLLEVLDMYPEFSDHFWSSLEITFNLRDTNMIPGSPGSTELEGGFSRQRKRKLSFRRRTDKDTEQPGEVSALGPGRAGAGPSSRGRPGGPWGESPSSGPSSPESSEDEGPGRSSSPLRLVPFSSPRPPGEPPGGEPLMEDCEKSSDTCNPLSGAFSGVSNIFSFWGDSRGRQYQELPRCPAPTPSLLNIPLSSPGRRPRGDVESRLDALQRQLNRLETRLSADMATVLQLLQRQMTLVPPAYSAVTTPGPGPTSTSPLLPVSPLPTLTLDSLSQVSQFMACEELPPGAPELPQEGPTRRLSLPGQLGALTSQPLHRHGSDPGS

In order of rising “hERG current change (%, negative = inhibition) at 1uM” value:
1. CCOC(=O)c1ccc2c(c1)nc(COc1ccc(OC)cc1)n2CC  -5.92%
2. O=C(Nc1ccc2c(c1)oc1ccccc12)N1CCOCC1  -5.38%
3. CN(C)C(=O)Oc1ccc2ccccc2c1Cl  -4.25%
4. O=C(COc1ccc(Br)cc1)Nc1ccc(Cc2ccncc2)cc1  -2.24%
5. O=C(NNC(=O)C1CC1c1ccccc1)c1cccc([N+](=O)[O-])c1 (centres unmarked)  -2.23%
6. O=C(Nc1cccc(S(=O)(=O)N2CCOCC2)c1)c1ccc2c(=O)n3c(nc2c1)CCCCC3  0.941%
7. COC(=O)c1c(C)oc(C)c1S(=O)(=O)NCC1CC1  1.85%
8. COc1ccc(OC)c(C(=O)NC(CC(N)=O)c2ccc(N3CCC(N4CCCCC4)CC3)c([N+](=O)[O-])c2)c1 (centres unmarked)  2.16%
9. O=[n+]1cc(-c2ccc(Br)cc2)n([O-])c2c1CCC2  2.72%
10. CCN(CCn1cccn1)C(=O)CC1C(=O)NCCN1Cc1ccc(OC)c(OC)c1 (centres unmarked)  2.76%
11. CC(=O)NC1C(=O)N=C(SCC(=O)Nc2cccc(Cl)c2)NC1=O (centres unmarked)  2.94%
12. COCCCn1nnnc1SCC(=O)Nc1ccc2c(c1)OCCO2  4.31%
13. Cn1c(-c2ccc3ccccc3n2)nc2cnccc21  4.37%
14. CC(C)C(=O)Nc1nnc(CCN(CCc2nnc(NC(=O)C(C)C)s2)[N+](=O)[O-])s1  5.05%
15. CC(C)c1cc(C(C)C)c(S(=O)(=O)NNC(=O)c2ccncc2)c(C(C)C)c1  5.32%
16. CCOC(=O)c1c(C)[nH]c(C(=O)COC(=O)/C=C/c2cccc(OC)c2OC)c1C  5.33%
17. COc1cc(C)c(S(=O)(=O)NCc2ccc3c(c2)OCO3)cc1C  5.39%
18. O=C(c1cc(Br)ccc1Cl)N1CCN(c2ccc(N3CCOCC3)nn2)CC1  5.71%
19. CCOC(O)[C@H]1N[C@@H](c2ccc(Cl)cc2)[C@@H]([N+](=O)[O-])[C@@H]1c1ccccc1 (some centres unmarked)  5.72%
20. CC(C)CCN1C(=O)c2ccc(C(=O)Nc3ccccn3)cc2C1=O  6.24%
21. CN1CCN(C(=O)/C(=C/c2ccccc2Cl)NC(=O)c2ccccc2)CC1  6.59%
22. CCOc1ncccc1C(=O)Nc1ccc(-c2cn3ccsc3n2)cc1  7.42%
23. CCNC(=O)Nc1cc(OC)c(OC)cc1C(=O)O  7.46%
24. CCOC(=O)C1CCCN(C(=O)c2cc(Nc3ccc(OC)cc3)nc3ccccc23)C1 (centres unmarked)  8.11%
25. COc1ccc2c(CC(=O)NCc3ccc4c(c3)OCO4)coc2c1  8.35%
26. Nc1cc(N)nc(CS)n1  8.73%
27. CC(NC(=O)OC(C)(C)C)C(=O)NC(CCC(=O)OCc1ccccc1)C(N)=O (stereo not drawn) (Boc-Ala-Glu(OBn)-NH2; configuration not given here)  8.75%
28. CCCN(CCC)S(=O)(=O)c1ccc(C)cc1  9%
29. CCCc1nc(-c2ccc(-c3ccc(F)cc3)cc2)no1  9.29%
30. N/C(=N\OC(=O)COc1ccccc1)c1ccncc1  9.62%
31. C/C(=N/NC(=O)c1ccncc1)c1ccc(NC(=O)c2ccc(Cl)cc2Cl)cc1  9.64%
32. CCCCN(C)CCNC(=O)c1nn(-c2ccc(OC)cc2)c(=O)c2c1c1ccccc1n2C  9.67%
33. NC(=O)CC(NC(=O)c1ccccc1)c1ccc(N2CCN(c3ccc(F)cc3)CC2)c([N+](=O)[O-])c1 (centres unmarked)  9.92%
34. COc1ccc(CNC(=O)/C=C/c2ccco2)cc1OC  10.2%
35. Cc1ccc(S(=O)(=O)NN2C(=O)/C(=C\c3ccc(Cl)cc3)SC2=S)cc1  10.4%
36. CC(C)CNC(=O)COc1ccccc1[N+](=O)[O-]  10.4%
37. CN1CCN(CCNC(=O)Nc2ccc([N+](=O)[O-])cc2)CC1  10.7%
38. Cc1occc1-c1nc(-c2ccccn2)no1  11.6%
39. Cc1ccc(OCCn2cnc(Cl)c2Cl)cc1  11.8%
40. Cc1cc(C)cc(NC(=O)C(NCCN2CCOCC2)c2ccccc2)c1.O=C(O)C(=O)O (centres unmarked)  12.1%
41. COc1ccccc1C(=O)N(NC(=O)Oc1ccccc1)C(C)(C)C  12.2%
42. Cc1nn(-c2cccc(C(=O)O)c2)c(C)c1[N+](=O)[O-]  12.3%
43. C/C(=N/NC(=O)C(=O)N/N=C(/C)c1ccccc1)c1ccccc1  12.7%
44. CCN(C(=O)COC(=O)Cn1cnc2c1c(=O)n(C)c(=O)n2C)C1CCS(=O)(=O)C1 (centres unmarked)  13.4%
45. O=C(O)C1CC=CCC1C(=O)NNc1ccccc1 (centres unmarked)  13.8%
46. Cc1ccc(C(=O)N/N=C/c2c[nH]c3ccccc23)o1  14.4%
47. Cc1ccc(C2=CC(=O)C[C@H](c3ccc(F)cc3)C2)cc1  14.5%
48. CN(CC(=O)Nc1c(Cl)cccc1Cl)C(=O)c1cccc(S(=O)(=O)NCc2ccccc2)c1  14.9%
49. CC1=C(C(=O)Nc2cccc(C(=O)NC3CCCC(C)C3C)c2)SCCO1 (centres unmarked)  15.3%
50. S=c1[nH]ccn1-c1cccc(Cl)c1Cl  15.8%
51. COc1cc(/C=C2\SC(c3ccc(C)cc3)=NC2=O)cc(OC)c1O  16.2%
52. Cc1ccc(C(=O)n2nc(-c3cccnc3)nc2N)cc1  16.7%
53. Cc1nnc(SCC(=O)NC(=O)NC2CCCC2)n1N  17.2%
54. Cc1cccc(-n2ncc3c(N(CCO)CCO)ncnc32)c1  17.2%
55. COc1ccc(N=C2NC(=O)/C(=C/C=C/c3ccccc3)S2)cc1  18%
56. CC(C)(C)OC(=O)N1CCN(C(=O)OCC2c3ccccc3-c3ccccc32)CC1C(=O)O (centres unmarked)  18.6%
